Data reported in PubChem BioAssay AID1508623 (National Center for Advancing Translational Sciences (NCATS), 2021).
The whole screen tested about 48,000 compounds, of which about 450 (0.94%) were called active. About 19% were inconclusive and are not listed. Calls follow the shape of the dose curve; as a rule, active = well fitted inhibition curve with a large enough effect; inconclusive = small, poorly fitted or top-dose-only effect; inactive = no such curve, though single readings can be large or run the other way. The list shows a part of the results.

assay: Primary qHTS for Identification of Small Molecule Inhibitors of Huntingtin Promoter Activity; conditions: HEK293 HTT promoter firefly luciferase reporter (activity 0% = vehicle and -100% = no light), 24 h; series mostly up to 57.5 µM; activity change, negative = inhibition: at the top concentration; also: nearly all actives have a fitted effect of over 50% in size
Summary of the method: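 Quantitative HTS used concentration series of up to 57.5 uM final on HEK293 luciferase reporter cells, 24 h at 37 degrees C. Readout was Dual-Glo firefly luminescence.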

| SMILES | activity change, negative = inhibition |
| --- | --- |
| CCOC(=O)c1sc(NC(=O)/C=C/c2ccc(C(C)C)cc2)c(C(=O)OCC)c1C | inactive: 1.5% |
| CCc1cccc(C)c1NS(=O)(=O)c1cc2[nH]c(=O)c(=O)[nH]c2cc1C | inactive: 3.46% |
| CCc1nnc(SCC(=O)Nc2ccccc2Cl)nc1CC | inactive: -22.6% |
| CCc1ccc(NCc2cc3cc4c(cc3n(CC(=O)Nc3cccc(OC)c3)c2=O)OCO4)cc1 | inactive: -21.3% |
| CC(C)COc1ccc(C(=O)NCC2(N3CCN(C)CC3)CCCCC2)cc1 | inactive: -9.97% |
| CCc1ccc2ncc3c(-c4ccccc4)nn(-c4ccccc4)c3c2c1 | inactive: -14.3% |
| CC[N+](C)(C)c1cccc(O)c1 | inactive: 5.4% |
| Cc1cc(NS(=O)(=O)c2ccc(NC(=O)c3ccccc3C)cc2)nc(C)n1 | inactive: -23.4% |
| Cc1ccc(C)c(NC(=O)CC2NCCNC2=O)c1 (stereo unspecified) | inactive: -31.5% [at 11.5 µM] |
| Cc1ccc(NC(=O)C2CCCN(c3nnc(-n4c(C)ccc4C)s3)C2)c(C)c1 (stereo unspecified) | inactive: -19% |
| N#Cc1ccccc1Cn1c(=O)n(CCCC(=O)NCc2ccc3c(c2)OCO3)c(=O)c2sccc21 | inactive: -20.2% |
| CCCC(C(=O)NCc1cccc(Cl)c1)N1Cc2ccccc2C1=O (stereo unspecified) | inactive: -20.5% |
| Cc1ccn2c(=O)cc(COc3ccc(NC(=O)COc4ccc(Cl)cc4)cc3)nc2c1 | inactive: -5.41% |
| CCCN(CCC)C(=O)Cn1c(=O)n(-c2cccc(OC)c2)c(=O)c2c3c(sc21)CCCC3 | inactive: 2.66% |
| Cc1csc2nc(COC(=O)c3cccc(NC(=O)COc4ccc(Cl)cc4)c3)cc(=O)n12 | inactive: -14.4% |
| O=C(CCCCn1c(=O)c2ccccc2n(Cc2ccccc2Cl)c1=O)NCCc1ccccc1 | inactive: -8.95% |
| CCOC(=O)CSc1ccc2nnc(CCNS(=O)(=O)c3ccccc3)n2n1 | inactive: -4.49% |
| Cc1ccc(CCNC(=O)C(NS(=O)(=O)c2ccc3c(c2)oc(=O)n3C)C(C)C)cc1 (stereo unspecified) | inactive: -15% |
| Cc1ccc(N(CC(=O)N2CCN(c3ccccc3F)CC2)S(=O)(=O)c2c(C)noc2C)cc1 | inactive: -9.29% |
| O=C(Nc1cccc(C(=O)OCc2cc(=O)n3nc(C4CC4)sc3n2)c1)c1cccc(F)c1 | inactive: -18.3% |
| COc1cc2c(cc1OC)C(COc1ccc3c(C)cc(=O)oc3c1)N(C(=O)c1cccc(C)c1)CC2 (stereo unspecified) | inactive: -20.1% |
| CCOc1ccc(-n2c(SCC(=O)NCC3CCCO3)nc3c([nH]c4ccccc43)c2=O)cc1 (stereo unspecified) | inactive: -10.7% |
| Cn1c(=O)c(=O)n(C)c2cc(S(=O)(=O)N3CCCC3C(=O)Nc3ccccc3F)ccc21 (stereo unspecified) | inactive: -1.17% |
| COc1ccc(NC(=O)CSc2nncn3c2cc2oc(C)cc23)cc1OC | inactive: 11.9% |

| SMILES | activity change, negative = inhibition |
| --- | --- |
| Cc1ccc(N(CC(=O)Nc2cccc(F)c2)S(=O)(=O)c2cccs2)cc1 | inactive: -24.6% |
| CNC(=O)C1CCC(Cn2c(=O)c3sccc3n(Cc3ccc(F)cc3)c2=O)CC1 (stereo unspecified) | inactive: -6.51% |
| CC1(C(=O)Nc2cccc(Br)c2)Cc2ccccc2C(=O)O1 (stereo unspecified) | inactive: -20.8% |
| CC(=O)N1CCCc2cc(S(=O)(=O)N3CCC(C(=O)NC4CCC(C)CC4)CC3)ccc21 (stereo unspecified) | inactive: -16.3% |
| COCCCNC(=O)CCC(=O)N1Cc2cccc(OC)c2Oc2ncccc21 | inactive: -19.5% |
| CCCc1cc(=O)oc2c3c(ccc12)OCN(Cc1ccc(OC)cc1)C3 | inactive: -9.48% |
| COC(=O)c1ccccc1NC(=O)c1ncoc1-c1ccco1 | inactive: -15.7% |
| NC(N)=NS(=O)(=O)c1ccc(N)cc1 | inactive: -3.35% |
| COC(=O)Cn1nc(C)c2c(C)n(-c3ccccc3)nc2c1=O | inactive: -6.49% |
| COc1cccc2c1cc1c(=O)n(CC(=O)NC3CCCCC3)nc(C)n12 | inactive: -1.83% |
| COc1cc(C(=O)N2CCN(c3ccc(Nc4ccc(C)cc4)nn3)CC2)cc(OC)c1OC | inactive: -9.71% |
| Cc1ccc(C(=O)Nc2cccc(OCc3cc(=O)n4c5c(sc4n3)CCCC5)c2)cc1 | inactive: -6.77% |
| NC(=O)CSc1oc(-c2ccco2)nc1S(=O)(=O)c1ccc(Cl)cc1 | inactive: -20.7% |
| Cc1ccc(NC(=O)c2cc3cc(C)ccc3n2C)cc1 | inactive: -1.05% |
| O=C(NCCc1ccccc1)c1sc2ncccc2c1-n1cccc1 | inactive: 11.5% |
| CCCc1cnc2c(c1SCC(=O)N1CCC(C)CC1)c(=O)n(C)c(=O)n2C | inactive: -28.6% |
| CCC1CCCCN1C(=O)Cn1c(=O)oc2cc(S(=O)(=O)N3CCCCC3)ccc21 (stereo unspecified) | inactive: -16.9% |
| Cc1ccc(NC(=O)C(Cc2ccccc2)NS(=O)(=O)c2ccc3c(c2)oc(=O)n3C)cc1F (stereo unspecified) | inactive: -24.8% |
| Clc1cccc(-n2ncc3c(N4CCC(Cc5ccccc5)CC4)ncnc32)c1 | inactive: -15.1% |
| CCCCNC(=O)C1CCC(Cn2c(=O)c3sccc3n(CC(=O)N3CCCC3)c2=O)CC1 (stereo unspecified) | inactive: -5.47% |
| COC(=O)c1cccnc1-n1c(=O)c2cccnc2n(CC(=O)Nc2ccccc2F)c1=O | inactive: -10.6% |
| CCOC(=O)c1c(C)oc2nc(C)nc(NCc3ccc(OC)cc3OC)c12 | inactive: -1.53% |
| O=C(CSc1nncn2c1cc1sccc12)Nc1ccc(Br)cc1F | inactive: 2.29% |
| CCOc1ccccc1NC(=O)C1CCN(S(=O)(=O)c2ccc3c(c2)CC(C)N3C(C)=O)CC1 (stereo unspecified) | inactive: -0.443% |

| SMILES | activity change, negative = inhibition |
| --- | --- |
| CCOC(=O)c1ccccc1NC(=O)Cn1c(=O)n(-c2cccc(C)c2)c(=O)c2c1c1cc(C)ccc1n2C | inactive: 3.27% |
| CCOc1ccc(Cn2c(CNS(=O)(=O)c3ccc(Cl)s3)nc3cccnc32)cc1 | inactive: -22% |
| COc1cccc(N2CCN(S(=O)(=O)c3ccc(-n4cnnn4)cc3)CC2)c1 | inactive: 0.646% |
| COc1cc(C2C(C(=O)Nc3ccccc3C)=C(C)Nc3ncnn32)ccc1OCC(N)=O (stereo unspecified) | inactive: -6.09% |
| O=C(NCC(c1ccc2c(c1)OCO2)N1CCOCC1)c1cccc(Cl)c1 (stereo unspecified) | inactive: -6.41% |
| CN(c1ccccc1)S(=O)(=O)c1ccc(NC(=O)c2cc(=O)c3ccccc3o2)cc1 | inactive: -8.09% |
| COCC(=O)NCc1nc2cccnc2n1Cc1ccc(F)cc1 | inactive: 11.5% |
| O=C(CCn1cnnn1)Nc1ccc(F)cc1 | inactive: 68.5% |
| Cc1oc(C)c2c(=O)cc(-c3ccc4c(c3)OCO4)cc(OC(=O)c3cccc(Br)c3)c12 | inactive: -31.6% |
| Cc1ccc(Cn2c(CNS(=O)(=O)c3ccc(F)c(Cl)c3)nc3cccnc32)cc1 | inactive: -13.4% |
| COc1ccc(-n2ncc(C(=O)NCCc3ccsc3)c2C2CCN(C(=O)OC(C)(C)C)CC2)cc1 | inactive: -1.71% |
| Cc1noc(-c2ccc(N3CCCCC3)c([N+](=O)[O-])c2)n1 | inactive: 39.1% |
| Cc1cc(NC(=O)c2cccc(Cl)c2)ccc1-c1cc2ccccc2oc1=O | inactive: -10.3% [at 11.5 µM] |
| COc1ccc(-c2noc(-c3ccc(N4CCN(c5ccccc5)CC4)c([N+](=O)[O-])c3)n2)cc1OC | inactive: -7.68% |
| CCOC(=O)C1(C)C=C(Nc2cccc(C(=O)O)c2)C(=O)N1c1cccc(C(=O)O)c1 (stereo unspecified) | inactive: 4.91% |
| Cc1ccc(CNS(=O)(=O)c2ccc3[nH]c4c(c3c2)CCCC4)cc1 | inactive: 8.32% |
| O=C1CS(=O)(=O)C2(C(=O)N(Cc3ccccc3)c3ccccc32)N1c1ccccc1 (stereo unspecified) | inactive: -11.2% |
| Cc1cn[nH]c1 | inactive |
| Cc1ccc(CCNC(=O)c2ccc3c(c2)nc2n3CCC(C)C2)cc1 (stereo unspecified) | inactive: 0.948% |
| Cc1cc(C)n(CCc2nc3c4ccccc4nc(N4CCN(c5ccccc5)CC4)n3n2)n1 | inactive: -5.84% |
| CCc1nn(CC(=O)N2CCN(c3cc(C)ccc3C)CC2)c(=O)c2cc3occc3n12 | inactive: -15% |
| CC1=C(c2ccc(C)c(C)c2)S(=O)(=O)N=C1N1CCC(C(=O)Nc2ccc(Cl)cc2)CC1 | inactive: -21.4% |
| COc1ccc(CCNc2nc(SCc3ccc(F)cc3)nc3ccccc23)cc1OC | inactive: -16.6% |
| CCc1ccc(-c2nc(SCC(=O)NCC3CCCO3)c(-c3ccc(F)cc3)[nH]2)cc1 (stereo unspecified) | inactive: -16.6% |

| SMILES | activity change, negative = inhibition |
| --- | --- |
| CNC(=O)c1ccc(CSc2nc3cccnc3n2Cc2cccc(F)c2)cc1 | inactive: -12.7% |
| Fc1ccccc1N1CCN(c2ncc3c(n2)CCN(Cc2ccc(Br)s2)C3)CC1 | inactive: -28.8% |
| Cc1ccc(C)c(NC(=O)N2CCc3cc(S(=O)(=O)N4CCC(C)CC4)ccc32)c1 | inactive: -10.7% |
| Cc1ccc2nc(-c3cccc(Cl)c3)c(Nc3ccc4c(c3)OCO4)n2c1 | inactive: 10.9% |
| CC(Oc1ccccc1)C(=O)OCc1cc(=O)n2nc(C(C)C)sc2n1 (stereo unspecified) | inactive: -22% |
| CCc1ccc(S(=O)(=O)c2nnn3c2nc(NCc2cccc(OC)c2)c2cc(Cl)ccc23)cc1 | inactive: -12.4% |
| Cc1ccsc1CN(C(=O)c1ccc(Br)cc1)C1CCS(=O)(=O)C1 (stereo unspecified) | inactive: -14.8% |
| Cc1ccc(NC(=O)N2CCN3CCCCC3C2)cc1F (stereo unspecified) | inactive: 29.1% |
| O=C(Nc1cccc(-c2nc3ccccc3[nH]2)c1)c1ccccc1F | inactive: -5.18% |
| COc1ccccc1NC(=O)Cn1cc(C(=O)c2ccncc2)c(=O)c2cc(C)ccc21 | inactive: -21.9% |
| COc1ccc(Cl)cc1NC(=O)C1CCN(S(=O)(=O)c2ccc3c(c2)CCCN3C(=O)C2CCC2)CC1 | inactive: 1.26% |
| Cc1cc(=O)[nH]c2nnc(SCC(=O)Nc3ccc(F)cc3F)n12 | inactive: 1.14% |
| COc1ccc(NC(=O)c2cc(S(=O)(=O)N3CCCCC3)cn2C)cc1Cl | inactive: -17.5% |
| CCCC(CCC)C(=O)Nc1nnc2n1CCS2 | inactive: -15.6% |
| Cc1cccc(N(C)C(=O)c2cc(S(=O)(=O)N3CCCCC3)c[nH]2)c1 | inactive: -9.64% |
| O=C(Nc1ccc(Cl)cc1)c1cc2c(Cl)nc3ccccc3c2s1 | inactive: 3.03% |
| CN(C)c1ccc(-c2noc(C3CC(=O)N(c4ccc5c(c4)OCCO5)C3)n2)cc1 (stereo unspecified) | inactive: -1.87% |
| COC(=O)CSc1nc2sc3c(c2c(=O)n1Cc1ccccc1)CCC(C(C)(C)C)C3 (stereo unspecified) | inactive: -13.5% |
| COc1cc(C(=O)OCCCN2CCCN(CCCOC(=O)c3cc(OC)c(OC)c(OC)c3)CC2)cc(OC)c1OC | inactive: 1.39% |
| CCc1ccc(CNC(=O)c2nn(-c3ccc(OC)c(Cl)c3)c(=O)c3c2c2ccccc2n3C)cc1 | inactive: -11.7% |
| COc1ccc(-c2c3c(nc4sc(C(=O)Nc5ccccc5F)c(N)c24)CC(C)(C)CC3=O)cc1 | inactive: -10.6% |
| CCN(Cc1ccccc1)C(=O)CN1C(=O)CSc2ccc(S(=O)(=O)N(CC)CC)cc21 | inactive: -8.15% |
| COc1ccc(-c2nn(CC(=O)NCc3ccccc3)c3c2cnc2ccc(F)cc23)cc1 | inactive: 45.4% |
| CCOc1ccccc1NC(=O)CN1C(=O)COc2ccc(S(=O)(=O)Nc3ccccc3)cc21 | inactive: -13.7% |
